The values below come from the supplement of paper PMC11417369.

Some of the results follow.

The test system of the assay is PfHDP1 homeodomain (GST-tagged). The experiment in a line: gcPBM binding intensity (ln(normalized median fluorescence intensity)); higher = stronger DNA binding. The method, boiled down:
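Using an Agilent 4 × 180k array, primer-extended double-stranded 36-bp intergenic genomic probes and negative controls were exposed for 1 h to GST-fused P. falciparum DNA-binding domains expressed in E. coli. Binding was carried out in 1× PBS with 1% milk, 0.2 mg/ml BSA, 0.5% salmon testes DNA and 0.03% Triton X-100, and protein was detected with Alexa488 anti-GST antibody and a 488 nm scan. Binding intensity is the highest Masliner-normalised natural-log median intensity across replicate spots of either probe orientation.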
As to “TACATATTGCACAAATAAAAAAGAACAAAAAAAAAA [CACACA_negctrl_site1200]”, the “gcPBM binding intensity (ln)” value was found to be 10.9.

Regarding “AAAAATAACATATAAACACACATATATATATATATA [CACACA_site3802]”, the “gcPBM binding intensity (ln)” value was found to be 9.31.

As for “TACTTTATATTATATATATATATATATATATATATA [CACACA_negctrl_site1765]”, the “gcPBM binding intensity (ln)” value was determined as 9.28.

Turning to “TATATAAAATAATAATGTACTCATTAAAATTATAGA [XGTACX_site4507]”, the “gcPBM binding intensity (ln)” value stood at 6.06.

As for “AAAGAAAAAAAAAAAAAAAAAAAAAAAATTATACAT [CACACA_negctrl_site7]”, the “gcPBM binding intensity (ln)” value was 5.89.

Regarding ATGTATCCAATAGGAGTGCATAATTCTATTAACACC, the “gcPBM binding intensity (ln)” value turned out to be 8.25.

“ACAAAATATACAAAATGTACAAAATATACAAAATGT [XGTACX_site6467]”: the “gcPBM binding intensity (ln)” value turned out to be 6.22.

With “TTATATCATTTTCCTGCACACATAAATTTATATAAT [CACACA_site8257]”, the “gcPBM binding intensity (ln)” value came to 8.33.

Turning to “TATACAGATAAATACACACACACATATATATATATA [CACACA_site4845]”, the “gcPBM binding intensity (ln)” value was 9.22.

In the case of “TTATTCTAAAAGTGTTTGCACTTTTATAATCATATA [GTGCAC_site9929]”, the “gcPBM binding intensity (ln)” value came out at 7.41.

Regarding “CATATGTATTTATTCACACATATATATATATATATA [CACACA_site4207]”, the “gcPBM binding intensity (ln)” value was 9.45.

For “AATAATAATTTGAATACACACAATAATATATATATA [CACACA_site2059]”, the “gcPBM binding intensity (ln)” value worked out at 8.46.

Turning to “ATACAAAAAATCACATGTACATATTCTTAAATGGTA [XGTACX_site8502]”, the “gcPBM binding intensity (ln)” value came to 6.26.

For “TACCTTTCTTATTATTGAAAAGGAATATATAAATAG [CACACA_negctrl_site272]”, the “gcPBM binding intensity (ln)” value came to 6.17.

As to “ATATATATTAATATTTGTACATAAAATTATTTCAAT [XGTACX_site5364]”, the “gcPBM binding intensity (ln)” value was determined as 6.65.

Regarding “AGTGTAATTTTCCACTGTACTTTTCTTGTATATAAT [XGTACX_site4201]”, the “gcPBM binding intensity (ln)” value was 6.29.

Turning to “AATACATTTATGAGCTGTACACATTTATTTGAGCTA [XGTACX_site7695]”, the “gcPBM binding intensity (ln)” value came out at 6.27.

For the sequence “TAAAAGTATTCCTTTTGTACATATAATGAAAACAAT [XGTACX_site2069]”, the “gcPBM binding intensity (ln)” value was 6.47.

Take “CTATATTTTTAAAAATGTACTTTATAATAAAATACT [XGTACX_site3593]”: the “gcPBM binding intensity (ln)” value came to 6.44.

Turning to “ATACAATAATATAAATGTACAAATTATATCTTAATT [XGTACX_site6004]”, the “gcPBM binding intensity (ln)” value is 6.45.

For the sequence “CTGTTTTTACTAAGTTGTACAAATGATGATACCCTA [XGTACX_site630]”, the “gcPBM binding intensity (ln)” value came out at 6.87.

In the case of “TAAATTTAAAATGACACACACTAAAATTATTTAAGT [CACACA_site4816]”, the “gcPBM binding intensity (ln)” value was 6.51.

Consider “AAATATTCATAGTATACACACATTTATTTATAACCA [CACACA_site6502]”, for which the “gcPBM binding intensity (ln)” value turned out to be 6.58.

On to “ACCTTTAATATATACACACACATAAAAAAAATATAT [CACACA_site1843]”, for which the “gcPBM binding intensity (ln)” value turned out to be 8.01.

As for “GTATGTATGTATGTATGTACTTATTTATTTATTTAT [XGTACX_site1921]”, the “gcPBM binding intensity (ln)” value was found to be 7.69.

As for “TAAAATTTACGGTCTTGTTGCGCAACCAACATTGTC [CACACA_negctrl_site1175]”, the “gcPBM binding intensity (ln)” value amounted to 7.25.

For “TAATAATAGTAAATATGTACATATATATATATATAG [XGTACX_site4602]”, the “gcPBM binding intensity (ln)” value came out at 6.76.

On to “GTTTTTTTTTTTTTGGTGCGTCATTTTCAAAAGAAG [GTGCAC_site9745]”, for which the “gcPBM binding intensity (ln)” value was found to be 7.06.

For the sequence “ATTAATAAATAAATGACACACACACCCACAAAAAAA [CACACA_site8839]”, the “gcPBM binding intensity (ln)” value came out at 7.07.

For the sequence “AATGATAAAAATAAATGTACAGAATGATATTTTTTT [XGTACX_site5976]”, the “gcPBM binding intensity (ln)” value came to 6.39.

Consider “AAAAAATTGTTTCCCTGTACTCAAAAAAAAAAAAAA [XGTACX_site8070]”, for which the “gcPBM binding intensity (ln)” value came out at 6.09.

As for “AAAAAAGAAAAGAAATGTACAGAGCTTATCTTTTTA [XGTACX_site5677]”, the “gcPBM binding intensity (ln)” value was determined as 6.23.

As for “TTTTTTAATTTTACATGTACATACAGGTTTTTTTTT [XGTACX_site4539]”, the “gcPBM binding intensity (ln)” value was 6.69.

Consider “TTCAATTTTACATGTAGTACATAAATTATACACAAA [XGTACX_site4946]”, for which the “gcPBM binding intensity (ln)” value was found to be 6.56.

For “TTATTCCTATTTGGATGTACATTTTAATATAAACAT [XGTACX_site4386]”, the “gcPBM binding intensity (ln)” value is 6.48.

For the sequence “ATTTTTTTTCGTAATTGTTCTTAATGTTGAATTATA [CACACA_negctrl_site1135]”, the “gcPBM binding intensity (ln)” value turned out to be 6.73.

For the sequence “TTTTCCTTTCACAATGGTACACAAATATACATGCAA [XGTACX_site7244]”, the “gcPBM binding intensity (ln)” value stood at 7.33.

In the case of “TAGTAATATGTATCCATACACACATACATTTTATTT [CACACA_site873]”, the “gcPBM binding intensity (ln)” value stood at 6.58.

For the sequence “TAATTTTTATTCAGTTCACACACGCTTTAATATTAT [CACACA_site9147]”, the “gcPBM binding intensity (ln)” value is 6.62.

On to “AAAAAATATACATATTGTACATTTTTTATTAACACA [XGTACX_site6415]”, for which the “gcPBM binding intensity (ln)” value turned out to be 5.94.

With GTATAGTACAAATAAGTGCATATAAAAGAAATACAG, the “gcPBM binding intensity (ln)” value came to 9.48.

For the sequence “ATAAATTTACATTTTTTTTTTTTTTTTTTTTTTTTT [GTGCAC_negctrl_site689]”, the “gcPBM binding intensity (ln)” value was found to be 7.14.

With “ATTACCAAAAAAAGGTGTACAAATATAATTATGAAA [XGTACX_site44]”, the “gcPBM binding intensity (ln)” value is 7.12.

For “ATTTTTTTATTTTGAAGTACATAAACTTTATATATA [XGTACX_site1746]”, the “gcPBM binding intensity (ln)” value turned out to be 6.39.
